The whole screen tested about 350,000 compounds, of which about 9,900 (2.8%) were called active. Inconclusive results, whose numbers are uncertain, are shown with a selection of clear calls. The call rests on the fitted dose curve; in most records, active means well fitted activation curve with a large enough effect; inconclusive means small, poorly fitted or top-dose-only effect; inactive means no such curve, though single readings can be large or run the other way. Potencies of inconclusive entries are left out as doubtful fits.
Test: A quantitative high throughput screen for small molecules that induce DNA re-replication in MCF 10a normal breast cells. Further: nearly all actives have a fitted effect of over 50% in size.
Details: MCF 10A DNA re-replication, Hoechst nuclear intensity, 48 h; series mostly up to 46.1 µM
Potency means the concentration at half of the fitted maximal effect; tags describe the fitted curve by direction and shape.

**Q.** For `CCCCOc1cccc(C(=O)Nc2ccccc2N2CCCC2)c1`, which Potency is on record?
**A.** The Potency was inconclusive [activator, single point].

**Q.** With `COc1ccccc1N1CCN(c2nccc(C)n2)CC1` as the compound, how does the Potency read?
**A.** Its Potency is “inactive”.

**Q.** With `COc1ccc(CN(C)C(=O)c2ccc(Oc3ccccc3)cc2)cc1F` as the compound, how does the Potency read?
**A.** The Potency was inconclusive [activator, single point].

**Q.** For `CC(=O)SCC(=O)N=c1sc2cc(F)ccc2n1C`, which Potency is on record?
**A.** The Potency was inconclusive [activator, partial curve].

**Q.** For `CN(C)/C=C(/C(=O)c1ccc(Cl)cc1)n1cncn1`, which Potency is on record?
**A.** The Potency was “inactive”.

**Q.** With `Cc1[nH]n2c(=O)c3c(nc2c1-c1ccccc1)CCCC3` as the compound, how does the Potency read?
**A.** The Potency was “inactive”.

**Q.** With `CC(C)=CCC/C(C)=C/CNC(=O)C[C@H]1C[C@H](C(=O)N2CCCCC2)[C@@]2(C)c3[nH]c4cc(-c5ccco5)ccc4c3CCN2C1=O` as the compound, how does the Potency read?
**A.** The Potency was inconclusive [activator, single point].

**Q.** For `CCCn1nc(C(=O)Nc2cc(OCC)c(N3CCOCC3)cc2OCC)c2ccccc2c1=O`, which Potency is on record?
**A.** The Potency was inconclusive [activator, single point].

**Q.** With `Cc1ccc(C)c2nc3sc(C(=O)N4CCCc5ccccc54)c(N)c3cc12` as the compound, how does the Potency read?
**A.** The Potency was inconclusive [activator, partial curve].

**Q.** With `CCCCN(CC(=O)Nc1c(C)cccc1CC)C(=O)SCC` as the compound, how does the Potency read?
**A.** The Potency was “inactive”.

**Q.** Which Potency does the source give for `CCCSc1nc(N)c2c3c(sc2n1)CN(C)CC3` here?
**A.** The Potency was inconclusive [activator, single point].

**Q.** With `Cc1ccc(Cl)cc1NC(=S)NN` as the compound, how does the Potency read?
**A.** The Potency was inconclusive [activator, single point].

**Q.** Which Potency does the source give for `COCCCNc1c2c3c(cccc3[nH]c1=O)C(=O)c1ccccc1-2` here?
**A.** Its Potency is active: 14.6 µM.

**Q.** With `Cc1ccnc(NC(=O)c2cccc3ccccc23)c1` as the compound, how does the Potency read?
**A.** The Potency was “inactive”.

**Q.** Which Potency does the source give for `CN(C(=O)c1cccc(NC(=O)Cc2cccc(NC(=O)C3CCN(C(=O)CCc4ccccc4)CC3)c2)c1)C1CC1` here?
**A.** Its Potency is “inactive”.

**Q.** Which Potency does the source give for `CC1CCN(C(=O)c2cc(F)c(F)cc2Cl)CC1` here?
**A.** Its Potency is inconclusive [activator, partial curve, poor fit].

**Q.** With `COc1ccc(-c2nn3c(-c4ccc(F)cc4)nnc3s2)cc1` as the compound, how does the Potency read?
**A.** The Potency was inconclusive [activator, full curve, poor fit].

**Q.** For `COc1ccc(N=C2SCC(=O)N2CCc2ccc(OC)c(OC)c2)cc1`, which Potency is on record?
**A.** The Potency was “inactive”.

**Q.** With `O=C(Cc1coc2ccc3ccccc3c12)NCc1ccccc1` as the compound, how does the Potency read?
**A.** The Potency was inconclusive [activator, partial curve].

**Q.** With `COC(=O)c1c(-c2ccccc2)csc1NC(=O)c1c(-c2ccccc2)noc1C` as the compound, how does the Potency read?
**A.** The Potency was inconclusive [activator, full curve].

**Q.** For `Cc1cccc(NC(=O)CSc2nc3[nH]ncc3c(=O)[nH]2)c1`, which Potency is on record?
**A.** The Potency was “inactive”.

**Q.** For `COc1ccc(-c2ccc3c(N)c(C(=O)c4ccc(OC)c(OC)c4)sc3n2)cc1`, which Potency is on record?
**A.** Its Potency is inconclusive [activator, full curve, poor fit].

**Q.** Which Potency does the source give for `CN(CCC#N)C(=O)CSc1ncnc2sc(-c3ccccc3)cc12` here?
**A.** The Potency was inconclusive [activator, partial curve, poor fit].

**Q.** For `N#C/C(=C/c1ccccc1[N+](=O)[O-])c1nc(C2CC2)cs1`, which Potency is on record?
**A.** Its Potency is “inactive”.

**Q.** With `Cc1ccc(-n2nc3c(=O)n(CC(=O)c4ccc(F)cc4)nc(C)c3c2C)cc1` as the compound, how does the Potency read?
**A.** The Potency was inconclusive [activator, partial curve, poor fit].

**Q.** With `O=C1c2ccccc2-c2c1nc1c([n+]2[O-])CCCC1` as the compound, how does the Potency read?
**A.** The Potency was “inactive”.

**Q.** For `CCCCCCCCCCOC(=O)Cn1c(COc2ccccc2)[n+](C)c2ccccc21`, which Potency is on record?
**A.** Its Potency is inconclusive [activator, partial curve, poor fit].

**Q.** For `COc1ccc(Nc2ccc3c(c2)=NC2(CCCCC2)[N+]=3[O-])cc1`, which Potency is on record?
**A.** Its Potency is active: 13 µM.

**Q.** With `COC(=O)CC1(C(=O)OC)Oc2ccc(Br)cc2C(=O)N1c1cccc(Cl)c1Cl` (stereo not given) as the compound, how does the Potency read?
**A.** Its Potency is inconclusive [activator, single point].

**Q.** For `COc1ccc(/C=C2\Sc3ccc(C(=O)NCC4CCCO4)cc3N(C)C2=O)cc1` (stereo not given), which Potency is on record?
**A.** The Potency was active: 23.1 µM.

**Q.** Which Potency does the source give for `COc1cccc(-c2sc3ccccc3c2-c2ccc(OCCN3CCCC3)cc2)c1` here?
**A.** The Potency was inconclusive [activator, partial curve, poor fit].

**Q.** Which Potency does the source give for `COc1cc(C(=O)NCC(c2ccco2)N2CCCC2)ccc1OCc1ccccc1` (stereo not given) here?
**A.** Its Potency is inconclusive [activator, partial curve].

**Q.** For `CCOC(=O)C1(CCOc2ccccc2)CCN(Cc2ccc(C(=O)OC)cc2)CC1`, which Potency is on record?
**A.** The Potency was inconclusive [activator, single point].

**Q.** For `O=C1CCCN1CC(O)CS(=O)(=O)Cc1ccc(Cl)c(Cl)c1` (stereo not given), which Potency is on record?
**A.** The Potency was “inactive”.

**Q.** For `O=C(O)COn1c(-c2ccccc2)nc2ccc(Cl)cc21`, which Potency is on record?
**A.** Its Potency is “inactive”.

**Q.** With `Cc1ncc(CO)c2c1Oc1nc(-c3ccccc3F)nc(SCC(=O)N(C)c3ccccc3)c1C2` as the compound, how does the Potency read?
**A.** The Potency was inconclusive [activator, partial curve, poor fit].

**Q.** Which Potency does the source give for `CC1=NN(c2ccccc2)C(=O)/C1=C\C=C1/N(C)c2ccccc2C1(C)C` here?
**A.** Its Potency is inconclusive [activator, single point].

**Q.** With `O=C1c2ccccc2NC(c2ccc(Cl)cc2Cl)N1Cc1ccccc1` (stereo not given) as the compound, how does the Potency read?
**A.** Its Potency is inconclusive [activator, single point].

**Q.** Which Potency does the source give for `Nc1ncnc2nc(SCC(=O)Nc3ccccc3F)[nH]c12` here?
**A.** Its Potency is inconclusive [activator, single point].

**Q.** Which Potency does the source give for `C[C@@H]1CN([C@@H](C)CO)C(=O)c2cc(NS(C)(=O)=O)ccc2O[C@@H]1CN(C)S(=O)(=O)c1ccccc1` here?
**A.** Its Potency is “inactive”.

**Q.** With `Cc1cc(C)cc(N2CCCC2=O)c1` as the compound, how does the Potency read?
**A.** Its Potency is “inactive”.

**Q.** With `O=C(CN1CCC(Cc2ccccc2)CC1)NC(=O)NC1CCCCC1` as the compound, how does the Potency read?
**A.** Its Potency is inconclusive [activator, single point].

**Q.** With `CCOC(=O)/C(=C/Nc1ccc(F)c(F)c1)[N+](=O)[O-]` as the compound, how does the Potency read?
**A.** The Potency was “inactive”.

**Q.** Which Potency does the source give for `Cc1cc(O)c(C(C)C)cc1NC(=S)Nc1cc(C(C)C)c(O)cc1C` here?
**A.** Its Potency is inconclusive [activator, single point].

**Q.** With `C=CCn1c(O)c(N=NC(=S)Nc2ccc(OC)c(Cl)c2)c2ccccc21` as the compound, how does the Potency read?
**A.** Its Potency is inconclusive [activator, full curve, poor fit].

From PubChem BioAssay AID624296 (National Center for Advancing Translational Sciences (NCATS), 2012)
